The other results are listed elsewhere or left out. Values were computed here from the reads of four pooled replicates and scatter widely.
Biological target: T1, Pho4 (S. cerevisiae) (UniProt P07270)
T1 sequence: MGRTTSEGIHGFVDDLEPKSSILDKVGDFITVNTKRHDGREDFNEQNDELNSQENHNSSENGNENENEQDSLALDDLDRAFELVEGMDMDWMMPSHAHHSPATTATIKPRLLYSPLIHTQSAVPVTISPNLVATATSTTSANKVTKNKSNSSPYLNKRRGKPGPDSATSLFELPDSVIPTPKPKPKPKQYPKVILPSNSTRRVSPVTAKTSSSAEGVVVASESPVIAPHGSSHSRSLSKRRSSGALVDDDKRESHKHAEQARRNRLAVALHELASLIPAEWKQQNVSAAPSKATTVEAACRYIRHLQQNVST
Experiment: relative binding free energy (BET-seq); higher = weaker binding
Conditions: reference: library average

Sequence | relative binding free energy [kcal/mol]
ATGGACACGTGGGTAT | 0
AAAGGCACGTGAGTGG | -0.03
AAGTTCACGTGTTTGT | 0.31
AATCGCACGTGAGTTT | 0.14
ACTTGCACGTGTTGTG | 0.04
CAAGTCACGTGGGGGA | -0.08
TGTAACACGTGGGGAC | 0.02
GGCTACACGTGGAGGT | 0.08
CGTGTCACGTGTCTAG | 0.14
AATATCACGTGCGGTG | 0.07
TGGTTCACGTGTGAGC | 0.29
ATATTCACGTGGATGT | 0.29
GTTTACACGTGTGGTA | 0.11
GTGTACACGTGGCCGG | -0.06
TAGTGCACGTGGTATA | -0.1
GTTTTCACGTGATATC | 0.35
GGGGTCACGTGGGTGG | 0.03
GCTTGCACGTGGAAGG | 0.11
GGAGGCACGTGTGTGG | 0.03
CCGTTCACGTGTTGTG | 0.16
GAGTCCACGTGGATTT | 0.3
TTCCGCACGTGTGGTG | 0.02
ATGGACACGTGAAGAT | 0.35
TGAGACACGTGCGTGT | -0.16
AGTTACACGTGGCGAG | 0.05

Sequence | relative binding free energy [kcal/mol]
GTTCTCACGTGATGTG | 0.28
TGTCGCACGTGAGTTT | 0.08
AGGGGCACGTGGCTAG | -0.13
TATATCACGTGGTTGA | 0
GGGAGCACGTGCTGGG | -0.01
CGGTTCACGTGGGAGG | 0.22
GGAATCACGTGGTAGA | 0.21
TGTTTCACGTGATTGT | 0.26
AGCGTCACGTGTTTTG | -0.02
TTGTTCACGTGTAGTT | 0.37
TGGGCCACGTGGAGTT | -0.01
ATAGACACGTGTGGCG | 0.12
TTTAGCACGTGATGCG | 0.07
TAGTGCACGTGGAATA | 0.14
ATGCTCACGTGAGAGT | 0.33
ATCAACACGTGGTGTG | -0.12
AGAGACACGTGGAAGT | 0.19
GAAGACACGTGAAGGT | 0.35
GAGAGCACGTGGAGGA | -0.12
ATTTGCACGTGTAGAC | 0.14
GGAAGCACGTGGCGGA | -0.21
ATTTGCACGTGTCAAG | -0.04
TTAATCACGTGGCTAG | 0.03
GTTTGCACGTGTAGGG | 0.17
AGGGGCACGTGCGCTG | -0.19

Sequence | relative binding free energy [kcal/mol]
GTAAGCACGTGATCGT | 0.05
TATGTCACGTGTAGGT | 0.04
AGTGACACGTGGTGCG | -0.09
CAGTGCACGTGTAAGT | 0.08
GGTTACACGTGGAATA | 0.18
ATGTTCACGTGGTAAA | 0.3
GTGCTCACGTGGGTGA | 0.05
TGATTCACGTGCGAGG | 0.21
GGGTGCACGTGGCATG | -0.12
GTGTACACGTGGGGGA | -0.09
ATGTGCACGTGAGGGT | 0.15
CAGGTCACGTGACTGG | 0.21
TCATGCACGTGTAAGG | 0.05
GTCGTCACGTGGGAAA | 0.16
AGGAACACGTGATGGT | 0.36
TGCTGCACGTGGATAT | 0
AGATTCACGTGAGGTA | 0.28
GGTATCACGTGTATGC | 0.15
AGGGACACGTGACGGG | -0.03
TGCCTCACGTGAGGGG | 0.34
AGTTGCACGTGGTCGA | 0.02
GGGACCACGTGATGGT | -0.04
GGGTTCACGTGAGGAT | 0.43
TTGATCACGTGGGGGG | 0.03
ATGGTCACGTGTAGGT | 0.13

Sequence | relative binding free energy [kcal/mol]
TGCCTCACGTGTGTTG | 0.07
AGAGGCACGTGAGTTA | 0.05
GTGTGCACGTGATTGG | 0.14
GTCTTCACGTGTGTTT | 0.38
GATAACACGTGGGGGT | -0.1
CGAGGCACGTGTATAG | -0.1
TTTTTCACGTGCGATT | 0.19
GTTTGCACGTGTACGG | 0.05
GGTTGCACGTGCTCTT | 0.03
TTCGTCACGTGAGTCG | 0.26
GGGTCCACGTGGAAGG | 0.19
TTGAGCACGTGTAGGA | -0.04
TACGTCACGTGTGGTC | 0.06
GCTGTCACGTGGTCGG | 0.03
GTTGACACGTGCTGGT | -0.02
TAACTCACGTGTTTTG | 0.19
TGTGGCACGTGATAAA | -0.01
CTTAGCACGTGAATGT | 0.15
GGTGACACGTGCGCGG | -0.2
GGGTGCACGTGAATGC | 0.34
TAAGGCACGTGGAGCT | -0.13
ACGTGCACGTGGTAGT | -0.15
AAGGTCACGTGGGTTC | -0.03
CGGACCACGTGGTGGG | -0.1
ATGCTCACGTGAGAGG | 0.32

Sequence | relative binding free energy [kcal/mol]
GGATACACGTGGTGGG | 0
GTGTGCACGTGGCTAA | -0.07
AAGATCACGTGGTATT | 0.05
TATAACACGTGTAAGT | 0.06
TGTCTCACGTGGAGGA | 0.15
TATGTCACGTGCTGCG | -0.01
GGGAACACGTGAGGGG | 0.28
AATAACACGTGTGTGT | -0.08
ATTATCACGTGTGACT | 0.23
TTGGGCACGTGCGGGG | -0.01
GTTATCACGTGGTCGG | -0.01
TTTCACACGTGCGTTG | 0.04
CGGGGCACGTGTGTCG | -0.09
AGTTGCACGTGGGGAA | -0.11
ATGGGCACGTGTGAGC | -0.03
AATATCACGTGGTGAT | 0.15
GGTGGCACGTGTGGCG | -0.16
TGGTTCACGTGGAGTC | 0.31
ATTGTCACGTGTGTGA | 0.04
GGTGACACGTGCCGGG | -0.13
TGATACACGTGTTCGT | -0.04
GGGGACACGTGAATTA | 0.33
GAGATCACGTGGGATG | 0.03
GGTTACACGTGTGGTT | 0.25
GTGTACACGTGAGTAT | 0.3

Sequence | relative binding free energy [kcal/mol]
GTTGACACGTGGCGTG | 0
GGGGACACGTGGGCGG | -0.08
GTGAACACGTGTGAAT | 0.27
TCTGTCACGTGATGAG | 0.15
CTGGGCACGTGGTTTG | -0.05
TAACGCACGTGGAGTG | -0.09
GGTAACACGTGTGTTG | 0.12
CCTGTCACGTGGTTTG | 0.05
GTTGACACGTGTAATA | 0.14
CCGTGCACGTGTGGCT | 0.24
AGTGTCACGTGGGAAG | -0.06
GGTGACACGTGTCAGT | 0.09
CATGTCACGTGTGGGG | -0.01
TGATGCACGTGGAGCT | 0
GAATGCACGTGGTGGG | -0.03
TGATTCACGTGAGCAT | 0.34
GGGTACACGTGTTTCA | 0.17
ACAATCACGTGGGTTG | 0
TAGTTCACGTGCAATT | 0.35
AGTTGCACGTGCTCTT | 0.01
ATGCGCACGTGTTGGA | -0.07
